Measurements as given in the supplement of paper PMC12217912.
The other results are listed elsewhere or left out. Sequences were assembled here from the parent chain. Values near 0.05 are background.

B1: TEV protease; numbered along this chain (parent)
chain: MGESLFKGPRDYNPISSSICHLTNESDGHTTSLYGIGFGPFIITNKHLFRRNNGTLVVQSLHGVFKVKDTTTLQQHLVDGRDMIIIRMPKDFPPFPQKLKFREPQREERICLVTTNFQTKSMSSMVSDTSCTFPSGDGIFWKHWIQTKDGQCGSPLVSTRDGFIVGIHSASNFTNTNNYFTSVPKNFMELLTNQEAQQWVSGWRLNADSVLWGGHKVFMVKPEEPFQPVKEATQL

Variants of: B1
Test: raw area under fraction-flipped curve 0-4 h after induction (AUC4h, not background-subtracted), DNA-recorder readout of cleavage of the substrate (dimensionless); higher = more cleavage of the substrate by the protease variant
Conditions: temperature: 34 °C; time window: 0-4 h after rhamnose induction
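Note: Bxb1 expression induced with 0.2% (w/v) L-rhamnose at OD600 near 0.5, cultures sampled hourly, flipped fraction per protease–substrate barcode pair counted by paired-end Illumina sequencing.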

Variant	area with substrate ERLYFQS	area with substrate EWLYFQS	area with substrate ESLYFQS	area with substrate ETLYFQS	area with substrate EQLYFQS	area with substrate EYLYFQS	area with substrate EVLYFQS
C131Q	0.112	0.0838					
G138A			0.1				
G138T		0.0928					
A170Q				0.0515			
T119W		0.109	0.12	0.159			
K230A		0.109	0.0617		0.0787	0.0838	
M1I			0.0718				
H215S				0.0596			
F38E							0.0464
N206L			0.117				
F163N	0.0722	0.0825	0.088	0.11			0.0656
H143N	0.0991		0.0947				0.0887
G2S						0.127	
